Results are given in words; binding and its absence hold for the method and conditions named. In cells and extracts the contact can be indirect. Some binding calls cover weakened binding; strength is not graded here.
Experiments:
[1] = target: Flag-tagged A2AR (adenosine A2A receptor) (UniProt P29274); assay: co-IP; HEK293T cells transfected with Flag-A2AR and the partner; lysed in IP buffer (50 mM HEPES pH 7.4, 150 mM NaCl, 10% glycerol) with 1% Triton X-100, which dissociates the γ-secretase complex; anti-Flag M2 resin, 4°C, 4 h; Western blot; in Fig 5E cells without or with 30 nM Istradefylline
[2] = target: Flag-tagged A2AR (adenosine A2A receptor) (UniProt P29274); assay: co-IP; HEK293T cells over-expressing PS1, NCT, APH1aL and Pen2 without or with Flag-A2AR; lysed in IP buffer (50 mM HEPES pH 7.4, 150 mM NaCl, 10% glycerol) with 1% CHAPSO; anti-Flag M2 resin, 4°C, 4 h; Western blot
[3] = target: A2AR-CFP (UniProt P29274); assay: FRET or BRET; acceptor photobleaching FRET in transfected HEK293 cells fixed with 4% PFA; CFP donor, YFP acceptor; confocal microscope; in Fig 5 cells treated with Istradefylline (30 nM, 0-60 min; or 10-100 nM, 30 min) or CGS 21680 HCl
[4] = target: Flag-tagged A2AR (adenosine A2A receptor) (UniProt P29274); assay: co-IP; HEK293T cells over-expressing BACE1 without or with Flag-A2AR (Fig 4F, lanes 5 and 6); anti-Flag M2 resin; detergent of these lanes not told (1% CHAPSO or 1% Triton X-100)

Amino acid sequences for entries named in this document (tags omitted). Residues count along the entry.
UniProt P56817, residues 46-501: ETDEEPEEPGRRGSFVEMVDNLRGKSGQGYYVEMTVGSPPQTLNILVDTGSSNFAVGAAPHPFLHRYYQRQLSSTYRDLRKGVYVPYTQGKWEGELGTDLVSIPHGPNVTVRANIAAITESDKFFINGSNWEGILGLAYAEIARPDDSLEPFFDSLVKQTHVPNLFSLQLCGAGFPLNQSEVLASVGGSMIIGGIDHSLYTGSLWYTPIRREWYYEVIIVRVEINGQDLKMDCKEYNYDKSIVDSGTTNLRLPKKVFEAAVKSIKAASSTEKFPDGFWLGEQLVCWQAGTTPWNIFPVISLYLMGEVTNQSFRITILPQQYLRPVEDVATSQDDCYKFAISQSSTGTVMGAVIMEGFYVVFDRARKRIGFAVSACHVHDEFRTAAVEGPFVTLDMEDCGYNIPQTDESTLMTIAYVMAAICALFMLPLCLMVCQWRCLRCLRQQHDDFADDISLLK

Row | Substance | binding [1] | binding [2] | binding [3] | further results
1 | APH1aL-YFP (from UniProt Q96BI3 1-265) |  |  | binds | 
2 | BACE1 (from UniProt P56817 46-501) (enzyme) |  |  |  | binding [4]: no binding
3 | BACE1-YFP (from UniProt P56817 46-501) (enzyme) |  |  | no binding | 
4 | HA-C99 (C99 fragment of APP, HA-tagged) (from UniProt P05067 672-770) (domain or fragment) | binds weakly |  |  | 

The next lines start with results.

Row | binding [1] | binding [2] | binding [3] | Substance | further results
5 | binds | binds |  | APH1aL (anterior pharynx defective 1a, long form) (from UniProt Q96BI3 1-265) | 
6 | binds | binds |  | nicastrin (NCT) (from UniProt Q92542 34-709) | 

— article PMC5106031
